In PubChem BioAssay AID222 (DTP/NCI, 2004):
Inconclusive results and toxic doses are left out. The source holds more than one record for some entries. They are shown here; other results are not. An entry can have further records. The values listed for one entry repeat one measurement (runs, samples, wells, individuals or studies).

System: C57BL/6 mice, intracerebral ependymoblastoma, median survival T/C
Experiment: NCI In Vivo Anticancer Drug Screen. Data for tumor model Ependymoblastoma (intracerebral) in C57BL/6 mice
Conditions: endpoint: median survival time, higher = longer survival
Description: The antitumor activity of compounds was measured in mice bearing transplantable tumors. Survival or tumor size were measured and the results are expressed as the measurement made in the treated group (T) divided by the measurement made in the vehicle treated control group (C). The tumor model used in this assay is Ependymoblastoma (intracerebral) in C57BL/6 mice

O=NN(CCCl)C(=O)NCCCl
T/C (dose: 1.0 mg/kg/injection, schedule: Q03HX008 (ip), vehicle: saline): 120 % of control and 160 % of control
T/C (dose: 2.0 mg/kg/injection, schedule: Q01DX005 (ip), vehicle: alcohol): 88 % of control, 113 % of control, 161 % of control
T/C (dose: 8.0 mg/kg/injection, schedule: Q08DX002 (ip), vehicle: saline): 120 % of control and 184 % of control
T/C (dose: 32.0 mg/kg/injection, schedule: Q08DX002 (ip), vehicle: saline): 103 % of control and 158 % of control

O=NN(CCCl)C(=O)NC1CCC(=O)NC1=O (stereo unspecified)
T/C (dose: 14.0 mg/kg/injection, schedule: Q01DX001 (ip), vehicle: other): 99 % of control and 313 % of control

O=P1(NCCCl)OCCCN1CCCl (stereo unspecified)
T/C (dose: 400.0 mg/kg/injection, schedule: Q01DX001 (ip), vehicle: water): 124 % of control and 168 % of control
